# Test results published in PubChem BioAssay AID485294 (National Center for Advancing Translational Sciences (NCATS), 2010).
# Screen size: about 370,000 compounds; about 150 (0.041%) were called active. Inconclusive means that the source gave no clear call. Such entries were picked first, then a sample of the others. The call rests on the fitted dose curve; in most records, active means well fitted inhibition curve with a large enough effect; inconclusive means small, poorly fitted or top-dose-only effect; inactive means flat fitted curve, though single readings scatter. Potencies of inconclusive entries are left out as doubtful fits.
# Target: Beta-lactamase (Escherichia coli (strain K12)) (UniProt P00811)
# Chain of UniProt P00811 (P00811 whole entry, looked up): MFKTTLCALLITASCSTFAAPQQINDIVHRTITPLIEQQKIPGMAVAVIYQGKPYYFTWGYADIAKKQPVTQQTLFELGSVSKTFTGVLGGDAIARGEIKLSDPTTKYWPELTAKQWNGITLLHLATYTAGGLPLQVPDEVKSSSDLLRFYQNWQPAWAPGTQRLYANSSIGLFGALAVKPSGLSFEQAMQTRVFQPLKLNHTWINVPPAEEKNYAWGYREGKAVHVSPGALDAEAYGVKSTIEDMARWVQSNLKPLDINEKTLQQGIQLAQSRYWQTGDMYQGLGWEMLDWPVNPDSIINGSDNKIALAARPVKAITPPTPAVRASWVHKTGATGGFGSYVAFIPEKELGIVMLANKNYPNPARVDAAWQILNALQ
# Assay: qHTS Inhibitors of AmpC Beta-Lactamase (assay with detergent); further: nearly all actives have a fitted effect of over 25% in size
# Conditions: AmpC hydrolysis of nitrocefin, absorbance 480 nm, 0.01% Triton; series mostly up to 114 µM
# Outline: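 AmpC (5.3 nM in the dispensed reagent) in 20 mM phosphate pH 7.0 with 0.01% (detergent screen) or 0.0001% Triton X-100 was preincubated with compounds for 15 min at room temperature. Nitrocefin was then added from an 800 uM solution, and hydrolysis was followed at 480 nm.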
# Potency means the concentration at half of the fitted maximal effect; tags describe the fitted curve by direction and shape.
row,Compound,Potency
1,N=c1n(CC(=O)c2ccc(Br)cc2)c2ccccc2n1Cc1ccccc1,inactive
2,Cc1cc(C(=O)NCCC2=CCCCC2)no1,"inconclusive [inhibitor, full curve, poor fit]"
3,COc1ccc(-n2nc(C(=O)NCC(=O)NCCC3=CCCCC3)c3ccccc3c2=O)cc1,"inconclusive [inhibitor, partial curve]"
4,Cn1c(=O)c(C(=O)COC(=O)c2cc(C(F)(F)F)nc3c(C(F)(F)F)cccc23)c(N)n(CC2CC2)c1=O,"inconclusive [inhibitor, full curve]"
5,O=C1CC(C(=O)Nc2ccc(F)cc2)S/C(=N\N=C\c2ccco2)N1 (configuration not stated),"inconclusive [inhibitor, full curve, poor fit]"
6,COc1ccc(-c2noc(CNC(=O)c3ccc4c(c3)OCO4)n2)cc1OC,inactive
7,O=C(Cc1cccs1)N/N=C/C(Cl)=C/c1ccccc1,"inconclusive [inhibitor, single point]"
8,CCOC(=O)N1CCN(C(=O)c2cc(-c3ccc(OCC)cc3)nc3ccccc23)CC1,inactive
9,Cc1ccc(NC(=O)Cn2cc(C(=O)C3CC3)c3ccccc32)c(C)c1,inactive
10,Nc1ccc2oc(-c3cccc4ccccc34)nc2c1,"inconclusive [inhibitor, full curve, poor fit]"
11,CCOc1ccc(/C(CCC(=O)O)=N/NC(=S)NC(C)C)cc1,"inconclusive [inhibitor, single point]"
12,CSc1ccc(OC2CCN(Cc3ccccc3)CC2)cc1,"inconclusive [inhibitor, partial curve, poor fit]"
13,COc1ccc(OC)c(-c2nc(C(N)=O)c3[nH]c(=O)n(-c4ccc(F)cc4)c3n2)c1,"inconclusive [inhibitor, full curve]"
14,COc1cc(/C=N/NC(=O)c2ccc(Cl)cc2)ccc1OCC(=O)N1CC(C)OC(C)C1 (configuration not stated),inactive
15,CCN(CC)CCOC(=O)C(O)(c1ccccc1)c1ccccc1,"inconclusive [inhibitor, partial curve]"
16,COC(=O)CCCC1=CC2=C(c3ccccc3)C(=O)C(C)(OC(=O)C3CCCC3)C(=O)C2=CN1CCCCO (configuration not stated),inactive
17,CC(C)c1ccc(SCc2noc(C(=O)NCC3CCCO3)c2C(=O)O)cc1 (configuration not stated),"inconclusive [inhibitor, full curve, poor fit]"
18,O=C(Nc1ccccc1O)c1cc(S(=O)(=O)N2CCOCC2)c(Cl)cc1Cl,"inconclusive [inhibitor, partial curve]"
19,CCOC(=O)Nc1nnc(CCc2ccccc2)s1,inactive
20,CC12CC(c3ccccc3O1)C(C(=O)NCc1ccccc1)C(=O)N2 (configuration not stated),"inconclusive [inhibitor, partial curve, poor fit]"
21,Cc1cc(-c2ccc(C)c(S(=O)(=O)NC(c3cccs3)C(C)C)c2)on1 (configuration not stated),inactive
22,CC(C)CC(=O)OCc1cn(-c2ccccc2)nn1,inactive
23,CCc1noc(C)c1C(=O)NC1CCCc2c1cnn2-c1ccc(C(C)(C)C)cc1 (configuration not stated),"inconclusive [inhibitor, full curve, poor fit]"

row,Compound,Potency
1,O=C(c1cccc(S(=O)(=O)N2CCOCC2)c1)N(CCc1ccccc1)Cc1ccccc1,"inconclusive [inhibitor, full curve, poor fit]"
2,CCc1ccccc1NC(=O)CSc1nnc([C@H](CCSC)NC(=O)OC(C)(C)C)o1,"inconclusive [inhibitor, full curve, poor fit]"
3,CCn1c(=O)c2cc(C(=O)Nc3cc(OC)c(OC)c(OC)c3)sc2c2ccccc21,inactive
4,Cc1nc2ccccc2n1CC(O)COC1CCCCC1 (configuration not stated),"inconclusive [inhibitor, single point]"
5,COc1ccc(NS(=O)(=O)c2ccc(NC(=S)NC(=O)/C=C/c3ccccc3)cc2)nn1,"inconclusive [inhibitor, partial curve, poor fit]"
6,CC1(C)CC2CC(C)(CN2Cc2cccc([N+](=O)[O-])c2)C1 (configuration not stated),"inconclusive [inhibitor, partial curve, poor fit]"
7,COc1ccc(OC)c(C2Nc3c(Cl)ccc(C(=O)O)c3C3C=CCC32)c1 (configuration not stated),inactive
8,CC1=C(C(=O)Nc2ccccc2C)C(c2ccncc2)n2nc(SCc3ccccc3Cl)nc2N1 (configuration not stated),"inconclusive [inhibitor, partial curve, poor fit]"
9,CC(=N\Nc1ccc(Cl)cc1)/C(=N/O)C(=O)Nc1ccccc1,"inconclusive [inhibitor, single point]"
10,COc1cc(NC(=O)C2CCN(c3cnc4ccccc4n3)CC2)cc(OC)c1OC,inactive
11,O=C(Nc1cccc(F)c1)C1CCCN1S(=O)(=O)c1cccc2cccnc12 (configuration not stated),"inconclusive [inhibitor, full curve, poor fit]"
12,C[Si](C)(C)n1ccnc1,"inconclusive [inhibitor, full curve]"
13,Cc1nc2ccc(NC(=O)N(C)c3ccccc3)cc2s1,"inconclusive [inhibitor, partial curve, poor fit]"
14,CCOc1ccc(N(C)Cc2cc(=O)oc3ccc(OCC)cc23)cc1,inactive
15,COc1cccc(CNC(=O)c2ccc3nc(-c4ccc(F)cc4)c(-c4ccc(F)cc4)nc3c2)c1,inactive
16,CCCCC(=O)N/N=C/c1c(O)n(Cc2ccco2)c(=O)[nH]c1=O,"inconclusive [inhibitor, single point]"
17,O=C(Nc1cccc(S(=O)(=O)N2CCCCC2)c1)c1ccc2ccccc2n1,"inconclusive [inhibitor, partial curve, poor fit]"
18,Cc1c(C(=O)NCc2cccnc2)oc2ccccc12,"inconclusive [inhibitor, partial curve, poor fit]"
19,Cc1cc(Br)ccc1NC(=O)CN(C)C(=O)c1cc([N+](=O)[O-])ccc1N1CCOCC1,"inconclusive [inhibitor, full curve, poor fit]"
20,COc1ccc(N2C(=O)C3CCCN3C2=S)cc1 (configuration not stated),inactive
21,CCc1ccccc1NC(=O)N1CCCc2ccccc21,"inconclusive [inhibitor, full curve, poor fit]"
22,CCN(CC(=O)Nc1ccccc1C(F)(F)F)C(=O)C1CCC1,"inconclusive [inhibitor, partial curve, poor fit]"
23,O=C(Nc1nnc(-c2ccc(F)cc2)o1)C1CCCN1S(=O)(=O)c1cccs1 (configuration not stated),"inconclusive [inhibitor, partial curve, poor fit]"

row,Compound,Potency
1,CCCCOC(=O)Nc1nnc(CC)s1,inactive
2,Cc1ccc(CN2C(=O)/C(=C\c3ccc(C(=O)NCc4cccnc4)cc3)Oc3ccccc32)cc1,"inconclusive [inhibitor, full curve, poor fit]"
3,Nc1ccccc1S(=O)(=O)c1ccccc1N,"inconclusive [inhibitor, full curve, poor fit]"
4,Cn1nnnc1SCC(=O)Nc1cc(S(=O)(=O)N2CCCC2)ccc1Cl,"inconclusive [inhibitor, single point]"
5,CCOc1cc(Cl)c(S(=O)(=O)NCc2cccnc2)cc1Cl,"inconclusive [inhibitor, full curve]"
6,CC1CCCCC12NC(=O)N(CC(=O)NCCc1ccc(S(N)(=O)=O)cc1)C2=O (configuration not stated),"inconclusive [inhibitor, full curve, poor fit]"
7,Cc1ccc2nc(SC(C)C(=O)Nc3cccc([N+](=O)[O-])c3)[nH]c2c1 (configuration not stated),"inconclusive [inhibitor, full curve, poor fit]"
8,CCCCOc1ccc(C(NC(=O)OCC)NC(=O)OCC)cc1,"inconclusive [inhibitor, full curve, poor fit]"
9,COc1cnc(-c2ccccn2)nc1Oc1ccccc1,inactive
10,Cc1cc(C)cc(OCC(=O)OCC(=O)Nc2c(C)n(C)n(-c3ccccc3)c2=O)c1,inactive
11,CCOC(=O)c1c(C)n(CCOC)c2ccc(O)cc12,"inconclusive [inhibitor, full curve]"
12,CC(=O)Nc1ccc(NC(=O)/C(=C/c2ccco2)NC(=O)c2ccccc2)cc1,inactive
13,COc1ccc(CC2C(=O)N(c3ccccc3)C(=O)N(c3ccccc3)C2=O)c(OC)c1,"inconclusive [inhibitor, full curve, poor fit]"
14,CCN=C(N/N=C/c1ccc([N+](=O)[O-])cc1)SC,inactive
15,CCOc1ccc(C2C(C(N)=O)=C(C)Nc3nc(SCc4ccccc4)nn32)cc1 (configuration not stated),inactive
16,O=C(NC(N1CCOCC1)C(Cl)(Cl)Cl)c1ccccc1Cl (configuration not stated),"inconclusive [inhibitor, full curve]"
17,O=C(CCl)c1ccc(Cc2ncc(C(F)(F)F)cc2Cl)s1,"inconclusive [inhibitor, partial curve]"
18,CCc1ccc(NC(=O)c2sc3ncnc(N(C)C4CCCCC4)c3c2C)cc1,inactive
19,Cc1ccc(C)c(S(=O)(=O)N2CCCC2CNC(=O)C(=O)NCCc2ccccc2)c1 (configuration not stated),"inconclusive [inhibitor, partial curve, poor fit]"
20,CCc1ccc(C(=O)CN2C(=O)C(C)N(c3ccc(C)cc3)C2=O)cc1 (configuration not stated),"inconclusive [inhibitor, single point]"
21,O=C(CCCn1nnnc1CN1CCOCC1)N1CCC(c2ccccc2F)C1 (configuration not stated),"inconclusive [inhibitor, full curve]"
